# Laboratory results: PubChem BioAssay AID902 (National Center for Advancing Translational Sciences (NCATS), 2007)
# Several values for one entry are separate records, joined by “and”; a condition that tells them apart may be missing. Equal values may be shown once. In all, about 130,000 compounds went through this assay and about 1,900 (1.5%) were called active. The inconclusive results got no clear call from the source; some entries with a clear call stand among them for comparison. Calls come from the whole dose curve; as a rule, active = well fitted cell-killing curve with a large enough effect; inconclusive = small, poorly fitted or top-dose-only effect; inactive = no such curve, though single readings can be large or run the other way. Potencies beside an inconclusive call are fits to weak or partial responses and may not hold up.
# Test: qHTS Screen for Compounds that Selectively Target Cancer Cells with p53 Mutations: Cytotoxicity of p53ts Cells at the Nonpermissive Temperature; note: nearly all actives have a fitted effect of over 55% in size
# Conditions: H1299-p53A138V viability at 39C, ATP luminescence, 24 h; activity change, negative = cell killing: at 46.1 µM (top of the series)
# % is set by controls: 0 for no effect and ±100 for the full control effect; potency is the fitted concentration of half-maximal effect; tags give direction and shape of the fitted curve.
SMILES,"activity change, negative = cell killing",Potency
O=C(c1cc(-c2ccc3c(c2)OCO3)on1)N1CCN(c2ccccc2)CC1,inactive: -23.6%,–
CN1CC2=Cc3ccccc3OC23Oc2ccccc2C=C3C1,–,"inconclusive: 15.8 µM [cytotoxic, single point]"
O=C1NC(c2cccs2)Nc2sc3c(c21)CCCC3 (centres undefined),–,"inconclusive: 25.1 µM [cytotoxic, single point]"
COc1ccc2nc(NC(=O)c3ccc(Br)s3)sc2c1,–,"inconclusive: 7.94 µM [cytotoxic, partial curve]"
COc1cccc(NC(=O)Cn2c(=O)n(CCc3ccccc3)c(=O)c3c4c(sc32)CN(C(C)=O)CC4)c1,inactive: -5.8%,–
CSc1ncnc2c1ncn2[C@@H]1O[C@@H](CO)[C@H](O)O[C@@H]1O,–,"inconclusive: 3.16 µM [cytotoxic, partial curve]"
NCCc1ccc(O)c(O)c1,–,"inactive and inconclusive: 12.6 µM [cytotoxic, single point]"
CC(C)(C)c1ccc(S(=O)(=O)N2CCN(CCC#N)CC2)cc1,inactive: 12.5%,–
Cc1ccc(NC(=O)CSc2ncnc3c2sc2ccccc23)cc1C,–,"inconclusive: 5.01 µM [cytotoxic, partial curve]"
Cn1cc(-c2cc3n(n2)CCC(=O)N3CC(=O)O)c2ccccc21,inactive: -5.03%,–
O=C(CSc1nnc(SCc2cccc3ccccc23)s1)N/N=C/c1c[nH]c2ccccc12,–,"inconclusive: 8.91 µM [cytotoxic, partial curve, poor fit]"
C[C@H](Cc1ccc(O)c(O)c1)[C@@H](C)Cc1ccc(O)c(O)c1,–,active: 20 µM
COc1ccc(CNc2nc(-c3ccco3)nn2C(=O)c2ccccc2Cl)cc1,–,"inconclusive: 7.94 µM [cytotoxic, partial curve]"
CN(C)/C=C1/Sc2ccccc2C1=O,inactive: 6.44%,–
COc1ccc(-c2cc3nc(-c4ccc(Br)cc4)cc(C(F)(F)F)n3n2)cc1,inactive: 14.8%,–
COc1ccc2c(=O)cc(-c3ccc(O)cc3)oc2c1,–,"inconclusive: 12.6 µM [cytotoxic, partial curve]"
Cc1nc(NC2CCCCC2)c2nc(-c3ccccc3)n(CCN3CCCCC3)c2n1,–,"inconclusive: 12.6 µM [cytotoxic, single point]"
CCc1cccc(CC)c1NC(=O)c1ccc2c(c1)CCN2S(=O)(=O)c1ccccc1,–,"inconclusive: 2 µM [cytotoxic, partial curve, poor fit]"
COc1ccc(-c2[nH]nc3nc(-c4cc(OC)c(OC)c(OC)c4)cc(C(=O)O)c23)cc1,–,"inconclusive: 6.31 µM [cytotoxic, single point]"
